Source: the supplement of paper PMC4967469

Assays:
Test in all cases: Viability of human cancer cell lines after 72 h of drug (GDSC screen)
[1] = compound: O=C(c1ccc(C(=O)N2CCC(N3CCCC3)CC2)c(Nc2ccccc2)c1)N1CCC(N2CCCC2)CC1 [UNC1215]; settings: top dose 1 µM; top dose inferred
Experimental: (§1)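 Human cancer cell lines in 384-well plates, medium with 10% serum, drug for 72 h over a 256-fold dose range (nine 2-fold or five 4-fold steps up to the top dose). Adherent lines were fixed and stained with the nucleic acid dye Syto60, suspension lines read with resazurin; signal relative to control wells, capped at 0 and 100%. One two-parameter sigmoid per drug and line, fitted in a mixed model over all curves with the slope shared within a line.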

[2] = compound: CS(=O)(=O)c1ccc(C(=O)Nc2ccc(Cl)c(-c3ccccn3)c2)c(Cl)c1 [Vismodegib]; settings: top dose 10 µM; top dose inferred
Experimental: as §1

[3] = compound: COC(=O)CNC(=O)C(=O)OC [Dimethyloxalylglycine]; settings: top dose 4000 µM; top dose inferred
Experimental: as §1

[4] = compound: Cc1cnc(Nc2ccc(OCCN3CCCC3)cc2)nc1Nc1cccc(S(=O)(=O)NC(C)(C)C)c1 [TG101348]; settings: top dose 10.24 µM
Experimental: as §1

[5] = compound: Cc1cnc(Nc2ccc(F)cc2Cl)nc1-c1c[nH]c(C(=O)N[C@H](CO)c2cccc(Cl)c2)c1 [VX-11e]; settings: top dose 5.12 µM; top dose inferred
Experimental: as §1

[6] = compound: CN(C)Cc1cccc(N=C(c2ccccc2)c2c(O)[nH]c3cc(C(=O)N(C)C)ccc23)c1 [BIX02189]; settings: top dose 20 µM; top dose inferred
Experimental: as §1

[7] = compound: COc1cccc2cc(-c3nc([C@H]4CC[C@H](C(=O)O)CC4)n4ncnc(N)c34)[nH]c12 [OSI-027]; settings: top dose 20 µM
Experimental: as §1

[8] = compound: CCc1cc(-c2n[nH]c(C)c2-c2ccc3c(c2)OCCO3)c(O)cc1O [CCT018159]; settings: top dose 10 µM; top dose inferred
Experimental: as §1

[9] = compound: N#CC[C@H](C1CCCC1)n1cc(-c2ncnc3[nH]ccc23)cn1 [Ruxolitinib]
Experimental: as §1

Cell Line | AUC [9] | IC50 [9] [µM] | also measured
U-266 (myeloma, semi-adherent) |  |  | AUC [1]: 0.974; IC50 [1]: > 1 µM; AUC [2]: 0.948; IC50 [2]: > 10 µM
VMRC-RCW (kidney, adherent) |  |  | AUC [3]: 0.399; IC50 [3]: 135 µM; AUC [4]: 0.904; IC50 [4]: > 10.2 µM; AUC [5]: 0.966; IC50 [5]: > 5.12 µM; AUC [6]: 0.977; IC50 [6]: > 20 µM; AUC [7]: 0.752; IC50 [7]: 6.21 µM; AUC [2]: 0.98; IC50 [2]: > 10 µM
MCF7 (breast, adherent) |  |  | AUC [8]: 0.855; IC50 [8]: 8.41 µM; AUC [3]: 0.837; IC50 [3]: 2810 µM; AUC [5]: 0.986; IC50 [5]: > 5.12 µM; AUC [6]: 0.986; IC50 [6]: > 20 µM; AUC [1]: 0.984; IC50 [1]: > 1 µM; AUC [7]: 0.985; IC50 [7]: > 20 µM; AUC [2]: 0.986; IC50 [2]: > 10 µM
HL-60 (acute myeloid leukaemia, suspension) |  |  | AUC [8]: 0.939; IC50 [8]: > 10 µM; AUC [3]: 0.406; IC50 [3]: 142 µM; AUC [6]: 0.935; IC50 [6]: > 20 µM; AUC [1]: 0.988; IC50 [1]: > 1 µM; AUC [7]: 0.339; IC50 [7]: 0.47 µM; AUC [2]: 0.978; IC50 [2]: > 10 µM
AU565 (breast, adherent) |  |  | AUC [8]: 0.801; IC50 [8]: 5.52 µM; AUC [4]: 0.973; IC50 [4]: > 10.2 µM; AUC [5]: 0.983; IC50 [5]: > 5.12 µM; AUC [6]: 0.984; IC50 [6]: > 20 µM; AUC [7]: 0.755; IC50 [7]: 7.5 µM; AUC [2]: 0.984; IC50 [2]: > 10 µM
LB373-MEL-D (melanoma, adherent, top dose 5.24 µM) | 0.989 | > 5.24 | 
SW872 (soft tissue, adherent, top dose 5.24 µM) | 0.983 | > 5.24 | 
CAL-120 (breast, adherent, top dose 5.24 µM) | 0.965 | > 5.24 | 
SK-N-SH (neuroblastoma, adherent, top dose 5.24 µM) | 0.977 | > 5.24 | 
NOS-1 (osteosarcoma, adherent, top dose 5.24 µM) | 0.978 | > 5.24 | 
DG-75 (Burkitt lymphoma, suspension, top dose 5.24 µM) | 0.985 | > 5.24 | 
MDST8 (large intestine, adherent, top dose 5.24 µM) | 0.986 | > 5.24 | 
SIG-M5 (acute myeloid leukaemia, suspension, top dose 5.24 µM) | 0.99 | > 5.24 | 
Ca9-22 (head and neck, adherent, top dose 5.24 µM) | 0.982 | > 5.24 | 
OCI-M1 (acute myeloid leukaemia, suspension, top dose 5.24 µM) | 0.069 | < 0.0205 | 
MFH-ino (soft tissue, adherent, top dose 5.24 µM) | 0.98 | > 5.24 | 
NCI-H2085 (lung adenocarcinoma, adherent, top dose 5.24 µM) | 0.983 | > 5.24 | 
H2591 (mesothelioma, adherent, top dose 5.24 µM) | 0.978 | > 5.24 | 
NCI-H2171 (small cell lung carcinoma, suspension, top dose 5.24 µM) | 0.987 | > 5.24 | 
LP-1 (myeloma, suspension, top dose 5.24 µM) | 0.988 | > 5.24 | 
CAL-39 (cervix, adherent, top dose 5.24 µM) | 0.984 | > 5.24 | 
HUTU-80 (digestive system, adherent, top dose 5.24 µM) | 0.991 | > 5.24 | 

Cell Line | AUC [9] | IC50 [9] [µM] | also measured
TE-441-T (rhabdomyosarcoma, adherent, top dose 5.24 µM) | 0.983 | > 5.24 | 
NCI-H69 (small cell lung carcinoma, suspension, top dose 5.24 µM) | 0.979 | > 5.24 | 
D-566MG (glioma, adherent, top dose 5.24 µM) | 0.986 | > 5.24 | 
JIMT-1 (breast, adherent, top dose 5.24 µM) | 0.985 | > 5.24 | 
T-24 (bladder, adherent, top dose 5.24 µM) | 0.988 | > 5.24 | 
OVKATE (ovary, adherent, top dose 5.24 µM) | 0.976 | > 5.24 | 
BICR22 (head and neck, adherent, top dose 5.24 µM) | 0.983 | > 5.24 | 
SNB75 (glioma, adherent, top dose 5.24 µM) | 0.966 | > 5.24 | 
WSU-DLCL2 (B-cell lymphoma, suspension, top dose 5.24 µM) | 0.993 | > 5.24 | 
D-247MG (glioma, adherent, top dose 5.24 µM) | 0.959 | > 5.24 | 
MPP-89 (mesothelioma, adherent, top dose 5.24 µM) | 0.981 | > 5.24 | 
EW-3 (Ewing sarcoma, adherent, top dose 5.24 µM) | 0.983 | > 5.24 | 
D-392MG (glioma, adherent, top dose 5.24 µM) | 0.979 | > 5.24 | 
MRK-nu-1 (breast, suspension, top dose 5.24 µM) | 0.989 | > 5.24 | 
COR-L23 (large cell lung carcinoma, adherent, top dose 5.24 µM) | 0.982 | > 5.24 | 
BE2-M17 (neuroblastoma, adherent, top dose 5.24 µM) | 0.987 | > 5.24 | 
MN-60 (B-cell leukaemia, suspension, top dose 5.24 µM) | 0.986 | > 5.24 | 
BFTC-905 (bladder, adherent, top dose 5.24 µM) | 0.99 | > 5.24 | 
HCC1599 (breast, suspension, top dose 5.24 µM) | 0.977 | > 5.24 | 
J82 (bladder, adherent, top dose 5.24 µM) | 0.975 | > 5.24 | 
SNG-M (endometrium, adherent, top dose 5.24 µM) | 0.983 | > 5.24 | 
NCI-H1792 (lung adenocarcinoma, adherent, top dose 5.24 µM) | 0.98 | > 5.24 | 

Cell Line | AUC [9] | IC50 [9] [µM] | also measured
HCC1395 (breast, adherent, top dose 5.24 µM) | 0.98 | > 5.24 | 
PEO1 (ovary, adherent, top dose 5.24 µM) | 0.984 | > 5.24 | 
NCI-H1623 (lung adenocarcinoma, adherent, top dose 5.24 µM) | 0.984 | > 5.24 | 
Caov-4 (ovary, adherent, top dose 5.24 µM) | 0.972 | > 5.24 | 
FU-OV-1 (ovary, adherent, top dose 5.24 µM) | 0.98 | > 5.24 | 
PL4 (pancreas, adherent, top dose 5.24 µM) | 0.987 | > 5.24 | 
NCI-H345 (small cell lung carcinoma, suspension, top dose 5.24 µM) | 0.99 | > 5.24 | 
NCI-H720 (lung carcinoid, suspension, top dose 5.24 µM) | 0.981 | > 5.24 | 
SF268 (glioma, adherent, top dose 5.24 µM) | 0.971 | > 5.24 | 
PF-382 (T-cell lymphoblastic leukaemia, suspension, top dose 5.24 µM) | 0.972 | > 5.24 | 
CAMA-1 (breast, adherent, top dose 5.24 µM) | 0.981 | > 5.24 | 
NCI-H1693 (lung adenocarcinoma, adherent, top dose 5.24 µM) | 0.968 | > 5.24 | 
CTV-1 (acute myeloid leukaemia, suspension, top dose 5.24 µM) | 0.932 | > 5.24 | 
NB6 (neuroblastoma, adherent, top dose 5.24 µM) | 0.984 | > 5.24 | 
TE-8 (oesophagus, adherent, top dose 5.24 µM) | 0.983 | > 5.24 | 
SNU-1040 (large intestine, adherent, top dose 5.24 µM) | 0.979 | > 5.24 | 
OCI-LY-19 (B-cell lymphoma, suspension, top dose 5.24 µM) | 0.966 | > 5.24 | 
NCI-H28 (mesothelioma, adherent, top dose 5.24 µM) | 0.978 | > 5.24 | 
NCI-H1755 (lung adenocarcinoma, adherent, top dose 5.24 µM) | 0.965 | > 5.24 | 
HCC2157 (breast, suspension, top dose 5.24 µM) | 0.978 | > 5.24 | 
NCI-H2172 (non-small cell lung carcinoma, adherent, top dose 5.24 µM) | 0.983 | > 5.24 | 
KP-1N (pancreas, adherent, top dose 1.024 µM) | 0.961 | > 1.02 | 

IC50 is the fitted dose that halves viability relative to control wells, and lower means more sensitive; fits outside the tested doses are given as limits. AUC sums up the same curve from the lowest dose to the 256-fold higher top dose: 1 means no effect, lower means more sensitive. For some assays here: A top dose marked as inferred was derived from the fitted curves, not read from the paper.
